The chains are these.
B1: TEV protease; numbered along this chain (parent)
chain: MGESLFKGPRDYNPISSSICHLTNESDGHTTSLYGIGFGPFIITNKHLFRRNNGTLVVQSLHGVFKVKDTTTLQQHLVDGRDMIIIRMPKDFPPFPQKLKFREPQREERICLVTTNFQTKSMSSMVSDTSCTFPSGDGIFWKHWIQTKDGQCGSPLVSTRDGFIVGIHSASNFTNTNNYFTSVPKNFMELLTNQEAQQWVSGWRLNADSVLWGGHKVFMVKPEEPFQPVKEATQL

The variants in this test derive from B1. Kind of test: raw area under fraction-flipped curve 0-4 h after induction (AUC4h, not background-subtracted), DNA-recorder readout of cleavage of the substrate (dimensionless); higher = more cleavage of the substrate by the protease variant. As to conditions: temperature: 34 °C; time window: 0-4 h after rhamnose induction. As to the method: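 In vivo DNA recorder in E. coli TOP10(DE3) ΔrhaA at 34 °C. Each TEVp single-site mutant (parent TEVp 0) is paired with a single-site variant of the 7-mer TEVs (canonical ENLYFQ|S). The substrate sits between flexible linkers in a Bxb1-sfGFP-TEVs-SsrA fusion, so cleavage stabilises Bxb1 and speeds flipping of a recombination array, read by NGS. The value is the raw area under the fraction-flipped curve over 0-4 h after rhamnose induction (AUC4h), with ≥20 reads per time point. It is not background-subtracted; inactive controls average about 0.047.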

The values below come from the supplement of paper PMC12217912.

This is one part of the list. Sequences were assembled here from the parent chain. Values near 0.05 are background.
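Note: Bxb1 expression induced with 0.2% (w/v) L-rhamnose at OD600 near 0.5, cultures sampled hourly, flipped fraction per protease–substrate barcode pair counted by paired-end Illumina sequencing.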

Take MGESLFKGPRDYNPISSSICHLTNESDGHTTSLYGIGFGPFIITNKHLFRRNNGTLVVQSLHGVFKVKDTTTLQQHLVDGRDMIIRRMPKDFPPFPQKLKFREPQREERICLVTTNFQTKSMSSMVSDTSCTFPSGDGIFWKHWIQTKDGQCGSPLVSTRDGFIVGIHSASNFTNTNNYFTSVPKNFMELLTNQEAQQWVSGWRLNADSVLWGGHKVFMVKPEEPFQPVKEATQL [I86R]: the “area with substrate ENAYFQS” value worked out at 0.0321, the “area with substrate ENDYFQS” value stood at 0.0441, the “area with substrate ENEYFQS” value came out at 0.0511 and the “area with substrate ENNYFQS” value was 0.0325. For the same variant, the “area with substrate ENQYFQS” value is 0.0449, the “area with substrate ENRYFQS” value was found to be 0.0472, the “area with substrate ENSYFQS” value is 0.0321 and the “area with substrate ENTYFQS” value came out at 0.0387. Besides, the “area with substrate ENWYFQS” value was found to be 0.0327 and the “area with substrate ENYYFQS” value was determined as 0.0458.
On to MGESLFKGPRDYNPISSSICHLTNESDGHTTSLYGIGFGPFIITNKHLFRRNNGTLVVQSLHGVFKVKDTTTLQQHLVDGRDMIIFRMPKDFPPFPQKLKFREPQREERICLVTTNFQTKSMSSMVSDTSCTFPSGDGIFWKHWIQTKDGQCGSPLVSTRDGFIVGIHSASNFTNTNNYFTSVPKNFMELLTNQEAQQWVSGWRLNADSVLWGGHKVFMVKPEEPFQPVKEATQL [I86F], for which the “area with substrate ENAYFQS” value turned out to be 0.063, the “area with substrate ENCYFQS” value amounted to 0.0671, the “area with substrate ENDYFQS” value worked out at 0.0737 and the “area with substrate ENEYFQS” value amounted to 0.062. The “area with substrate ENFYFQS” value was 0.0465, the “area with substrate ENGYFQS” value came to 0.0624, the “area with substrate ENHYFQS” value was determined as 0.0722 and the “area with substrate ENIYFQS” value worked out at 0.089. In addition, the “area with substrate ENKYFQS” value came to 0.0543, the “area with substrate ENNYFQS” value was determined as 0.0586, the “area with substrate ENQYFQS” value amounted to 0.04 and the “area with substrate ENRYFQS” value is 0.0393. The “area with substrate ENSYFQS” value was 0.0793, the “area with substrate ENTYFQS” value was found to be 0.0628, the “area with substrate ENVYFQS” value is 0.0564 and the “area with substrate ENYYFQS” value came out at 0.0559.
Consider MGESLFKGPRDYNPISSSICHLTNESDGHTTSLYGIGFGPFIITNKHLFRRNNGTLVVQSLHGVFKVKDTTTLQQHLVDGRDMIFIRMPKDFPPFPQKLKFREPQREERICLVTTNFQTKSMSSMVSDTSCTFPSGDGIFWKHWIQTKDGQCGSPLVSTRDGFIVGIHSASNFTNTNNYFTSVPKNFMELLTNQEAQQWVSGWRLNADSVLWGGHKVFMVKPEEPFQPVKEATQL [I85F], for which the “area with substrate ENAYFQS” value was determined as 0.0538, the “area with substrate ENDYFQS” value is 0.0655, the “area with substrate ENEYFQS” value was determined as 0.067 and the “area with substrate ENFYFQS” value came to 0.0499. The “area with substrate ENIYFQS” value was 0.0888, the “area with substrate ENKYFQS” value stood at 0.0444, the “area with substrate ENMYFQS” value was 0.0857 and the “area with substrate ENPYFQS” value came to 0.0533. Also, the “area with substrate ENQYFQS” value is 0.0537, the “area with substrate ENRYFQS” value was found to be 0.0517 and the “area with substrate ENSYFQS” value turned out to be 0.0635.
MGESLFKGPRDYNPISSSICHLTNESDGHTTSLYGIGFGPFIITNKHLFRRNNGTLVVQSLHGVFKVKDTTTLQQHLVDGRDMICIRMPKDFPPFPQKLKFREPQREERICLVTTNFQTKSMSSMVSDTSCTFPSGDGIFWKHWIQTKDGQCGSPLVSTRDGFIVGIHSASNFTNTNNYFTSVPKNFMELLTNQEAQQWVSGWRLNADSVLWGGHKVFMVKPEEPFQPVKEATQL [I85C]: the “area with substrate ENAYFQS” value worked out at 0.0429, the “area with substrate ENCYFQS” value is 0.0566, the “area with substrate ENDYFQS” value is 0.0554 and the “area with substrate ENEYFQS” value came to 0.0591. Moreover, the “area with substrate ENFYFQS” value stood at 0.0536, the “area with substrate ENGYFQS” value was 0.0635, the “area with substrate ENIYFQS” value is 0.0922 and the “area with substrate ENKYFQS” value was 0.049. For the same variant, the “area with substrate ENMYFQS” value turned out to be 0.0633, the “area with substrate ENNYFQS” value came to 0.0488, the “area with substrate ENPYFQS” value is 0.0717 and the “area with substrate ENQYFQS” value was 0.0585. In addition, the “area with substrate ENSYFQS” value was 0.0522, the “area with substrate ENTYFQS” value was 0.0595, the “area with substrate ENVYFQS” value was 0.0605 and the “area with substrate ENYYFQS” value turned out to be 0.0517.
On to MGESLFKGPRDYNPISSSICHLTNESDGHTTSLYGIGFGPFIITNKHLFRRNNGTLVVQSLHGVFKVKDTTTLQQHLVDGIDMIIIRMPKDFPPFPQKLKFREPQREERICLVTTNFQTKSMSSMVSDTSCTFPSGDGIFWKHWIQTKDGQCGSPLVSTRDGFIVGIHSASNFTNTNNYFTSVPKNFMELLTNQEAQQWVSGWRLNADSVLWGGHKVFMVKPEEPFQPVKEATQL [R81I], for which the “area with substrate ENAYFQS” value was 0.0749, the “area with substrate ENCYFQS” value was 0.06, the “area with substrate ENDYFQS” value came to 0.0646 and the “area with substrate ENEYFQS” value came to 0.0473. The “area with substrate ENGYFQS” value amounted to 0.0603, the “area with substrate ENHYFQS” value is 0.0466, the “area with substrate ENIYFQS” value came out at 0.103 and the “area with substrate ENKYFQS” value came to 0.0662. In addition, the “area with substrate ENMYFQS” value turned out to be 0.0642, the “area with substrate ENPYFQS” value worked out at 0.0678, the “area with substrate ENQYFQS” value came out at 0.0692 and the “area with substrate ENRYFQS” value was 0.0562. In addition, the “area with substrate ENSYFQS” value worked out at 0.0535, the “area with substrate ENTYFQS” value came out at 0.0592, the “area with substrate ENVYFQS” value was found to be 0.084 and the “area with substrate ENWYFQS” value worked out at 0.0327. The “area with substrate ENYYFQS” value came to 0.0653.
Turning to MGESLFKGPRDYNPISSSICHLTNESDGHTTSLYGIGFGPFIITNKHLFRRNNGTLVVQSLHGVFKVKDTTTLQQHLVDGGDMIIIRMPKDFPPFPQKLKFREPQREERICLVTTNFQTKSMSSMVSDTSCTFPSGDGIFWKHWIQTKDGQCGSPLVSTRDGFIVGIHSASNFTNTNNYFTSVPKNFMELLTNQEAQQWVSGWRLNADSVLWGGHKVFMVKPEEPFQPVKEATQL [R81G], the “area with substrate ENAYFQS” value was determined as 0.068, the “area with substrate ENCYFQS” value was found to be 0.0653, the “area with substrate ENDYFQS” value was determined as 0.052 and the “area with substrate ENEYFQS” value stood at 0.0656. Further, the “area with substrate ENFYFQS” value is 0.0485, the “area with substrate ENGYFQS” value was found to be 0.0765, the “area with substrate ENIYFQS” value is 0.0895 and the “area with substrate ENKYFQS” value amounted to 0.0589. Further, the “area with substrate ENMYFQS” value is 0.0635, the “area with substrate ENQYFQS” value was found to be 0.0605, the “area with substrate ENSYFQS” value was determined as 0.0428 and the “area with substrate ENWYFQS” value amounted to 0.0604. The “area with substrate ENYYFQS” value came out at 0.0611.
In the case of MGESLFKGPRDYNPISSSICHLTNESDGHTTSLYGIGFGPFIITNKHLFRRNNGTLVVQSLHGVFKVKDTTTLQQHLVGGRDMIIIRMPKDFPPFPQKLKFREPQREERICLVTTNFQTKSMSSMVSDTSCTFPSGDGIFWKHWIQTKDGQCGSPLVSTRDGFIVGIHSASNFTNTNNYFTSVPKNFMELLTNQEAQQWVSGWRLNADSVLWGGHKVFMVKPEEPFQPVKEATQL [D79G], the “area with substrate ENAYFQS” value is 0.0577, the “area with substrate ENCYFQS” value stood at 0.0335, the “area with substrate ENEYFQS” value stood at 0.052 and the “area with substrate ENFYFQS” value worked out at 0.0631. Also, the “area with substrate ENHYFQS” value worked out at 0.0665, the “area with substrate ENIYFQS” value turned out to be 0.109, the “area with substrate ENKYFQS” value was found to be 0.0506 and the “area with substrate ENMYFQS” value was 0.0569. For the same variant, the “area with substrate ENNYFQS” value is 0.0589, the “area with substrate ENPYFQS” value stood at 0.0569, the “area with substrate ENQYFQS” value was determined as 0.0768 and the “area with substrate ENRYFQS” value was determined as 0.0492. Moreover, the “area with substrate ENSYFQS” value came to 0.0569, the “area with substrate ENTYFQS” value was 0.0653, the “area with substrate ENWYFQS” value was 0.0531 and the “area with substrate ENYYFQS” value amounted to 0.0636.
For the variant MGESLFKGPRDYNPISSSICHLTNESDGHTTSLYGIGFGPFIITNKHLFRRNNGTLVVQSLHGVFKVKDTTTLQQHLVVGRDMIIIRMPKDFPPFPQKLKFREPQREERICLVTTNFQTKSMSSMVSDTSCTFPSGDGIFWKHWIQTKDGQCGSPLVSTRDGFIVGIHSASNFTNTNNYFTSVPKNFMELLTNQEAQQWVSGWRLNADSVLWGGHKVFMVKPEEPFQPVKEATQL [D79V], the “area with substrate ENAYFQS” value stood at 0.0631, the “area with substrate ENCYFQS” value is 0.0747, the “area with substrate ENDYFQS” value amounted to 0.0594 and the “area with substrate ENEYFQS” value was 0.0594. The “area with substrate ENFYFQS” value is 0.0668, the “area with substrate ENGYFQS” value worked out at 0.053, the “area with substrate ENHYFQS” value came to 0.0553 and the “area with substrate ENMYFQS” value is 0.0806. For the same variant, the “area with substrate ENNYFQS” value turned out to be 0.0576, the “area with substrate ENPYFQS” value turned out to be 0.0453, the “area with substrate ENRYFQS” value came to 0.0523 and the “area with substrate ENSYFQS” value was determined as 0.062. For the same variant, the “area with substrate ENTYFQS” value amounted to 0.0744.
For the variant MGESLFKGPRDYNPISSSICHLTNESDGHTTSLYGIGFGPFIITNKHLFRRNNGTLVVQSLHGVFKVKDTTTLQQHLVDHRDMIIIRMPKDFPPFPQKLKFREPQREERICLVTTNFQTKSMSSMVSDTSCTFPSGDGIFWKHWIQTKDGQCGSPLVSTRDGFIVGIHSASNFTNTNNYFTSVPKNFMELLTNQEAQQWVSGWRLNADSVLWGGHKVFMVKPEEPFQPVKEATQL [G80H], the “area with substrate ENAYFQS” value turned out to be 0.0502, the “area with substrate ENCYFQS” value amounted to 0.0772, the “area with substrate ENDYFQS” value was found to be 0.0549 and the “area with substrate ENFYFQS” value amounted to 0.0623. In addition, the “area with substrate ENGYFQS” value came to 0.0512, the “area with substrate ENHYFQS” value amounted to 0.0584, the “area with substrate ENIYFQS” value amounted to 0.104 and the “area with substrate ENKYFQS” value was 0.0595. In addition, the “area with substrate ENNYFQS” value was found to be 0.0645, the “area with substrate ENQYFQS” value came out at 0.0639, the “area with substrate ENSYFQS” value worked out at 0.0656 and the “area with substrate ENTYFQS” value was 0.0623. The “area with substrate ENVYFQS” value is 0.0802 and the “area with substrate ENYYFQS” value was found to be 0.0503.
